Test results as given in PubChem BioAssay AID1347165 (National Center for Advancing Translational Sciences (NCATS), 2019).
Among all 220,000 compounds or so, about 5,700 (2.6%) were called active. Inconclusive means that the source gave no clear call. Such entries were picked first, then a sample of the others. Calls follow the shape of the dose curve; as a rule, active = well fitted inhibition curve with a large enough effect; inconclusive = small, poorly fitted or top-dose-only effect; inactive = no such curve, though single readings can be large or run the other way. Where the call is inconclusive, the potency comes from a doubtful curve fit.

Biological target: Lysine-specific demethylase 5B (Homo sapiens) (UniProt Q9UGL1)
Chain of UniProt Q9UGL1 (Q9UGL1 whole entry, looked up): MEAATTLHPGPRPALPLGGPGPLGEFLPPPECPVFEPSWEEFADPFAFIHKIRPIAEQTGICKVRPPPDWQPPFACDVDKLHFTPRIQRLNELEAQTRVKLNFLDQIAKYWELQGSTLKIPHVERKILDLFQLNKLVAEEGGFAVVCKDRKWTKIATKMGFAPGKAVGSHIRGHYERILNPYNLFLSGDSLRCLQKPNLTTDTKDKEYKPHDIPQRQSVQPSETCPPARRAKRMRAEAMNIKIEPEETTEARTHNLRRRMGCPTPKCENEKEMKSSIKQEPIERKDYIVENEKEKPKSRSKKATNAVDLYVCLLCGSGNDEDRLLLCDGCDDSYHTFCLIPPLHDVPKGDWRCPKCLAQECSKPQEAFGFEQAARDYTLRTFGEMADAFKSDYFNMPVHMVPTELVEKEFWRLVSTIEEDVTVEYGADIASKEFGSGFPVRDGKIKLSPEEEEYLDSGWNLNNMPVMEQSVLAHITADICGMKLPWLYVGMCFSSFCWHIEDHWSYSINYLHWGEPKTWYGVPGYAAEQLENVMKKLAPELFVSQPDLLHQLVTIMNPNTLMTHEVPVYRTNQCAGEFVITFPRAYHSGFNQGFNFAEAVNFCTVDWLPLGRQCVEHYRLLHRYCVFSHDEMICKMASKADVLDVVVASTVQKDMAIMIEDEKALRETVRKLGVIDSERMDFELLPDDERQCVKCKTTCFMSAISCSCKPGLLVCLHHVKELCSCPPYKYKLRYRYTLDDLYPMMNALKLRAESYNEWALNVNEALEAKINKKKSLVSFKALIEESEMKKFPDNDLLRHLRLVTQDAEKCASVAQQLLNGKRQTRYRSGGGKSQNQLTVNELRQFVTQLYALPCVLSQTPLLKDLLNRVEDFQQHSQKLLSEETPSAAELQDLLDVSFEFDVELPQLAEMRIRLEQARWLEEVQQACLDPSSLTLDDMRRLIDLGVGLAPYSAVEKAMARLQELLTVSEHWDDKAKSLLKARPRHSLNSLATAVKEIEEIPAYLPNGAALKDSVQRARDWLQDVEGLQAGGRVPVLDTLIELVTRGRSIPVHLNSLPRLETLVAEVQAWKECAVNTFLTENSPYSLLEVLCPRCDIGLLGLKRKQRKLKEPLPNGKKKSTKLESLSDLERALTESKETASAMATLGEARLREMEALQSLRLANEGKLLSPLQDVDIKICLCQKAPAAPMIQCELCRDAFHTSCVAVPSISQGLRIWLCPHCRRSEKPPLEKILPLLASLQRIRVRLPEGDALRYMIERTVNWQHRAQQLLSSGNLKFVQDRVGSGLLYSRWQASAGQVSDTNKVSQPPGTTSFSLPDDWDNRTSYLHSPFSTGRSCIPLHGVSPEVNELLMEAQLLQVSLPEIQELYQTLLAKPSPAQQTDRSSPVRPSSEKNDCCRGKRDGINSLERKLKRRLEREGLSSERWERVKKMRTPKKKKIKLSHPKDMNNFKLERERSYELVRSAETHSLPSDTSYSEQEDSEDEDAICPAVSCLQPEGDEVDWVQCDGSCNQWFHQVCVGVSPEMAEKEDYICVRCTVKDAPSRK
Assay: Primary screen for KDM5B Histone Demethylases FDH-coupled qHTS; also: nearly all actives have a fitted effect of over 70% in size; as to activity change, negative = inhibition: 0% is about no effect
Conditions: FDH-coupled NADH fluorescence (FDH is formaldehyde dehydrogenase); activity change, negative = inhibition: at 57.7 µM (top of the series) unless noted
Method in brief: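 Here, H3K4me3 peptide (12.5 µM in substrate mix) is demethylated by KDM5BΔAP, 200 nM final, after 10 min compound exposure. Formaldehyde product is coupled through FDH (0.25 U/mL in mix) to NADH fluorescence; 30-min ΔRFU feeds dose-response curves.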
Potency is read from the fitted curve at half-maximal effect; tags tell the direction and shape of the fitted curve.

Row | SMILES | Potency | activity change, negative = inhibition
1 | O=C(Nc1ncc(-c2cccc(F)c2)c2c1OCC2)c1ccncc1 | inactive | 
2 | COC(=O)c1ccc(CNC(=O)CCc2ncc(-c3ccccc3F)o2)cc1 | inactive | 
3 | Cn1nc(C2CCNC2)c2c(C(=O)N3CCOCC3)cc(C3CC3)nc21 (stereo unspecified) | active: 89.1 µM | 
4 | O=C1COc2ccc(-c3ccccc3)nc2CN1Cc1ccccc1F | inactive | 
5 | O=C(NCCO)C1CC(=O)N(c2n[nH]c3ccccc23)C1 (stereo unspecified) | inactive | 
6 | CCS(=O)(=O)c1ccc(Cc2ccc(S(=O)(=O)CC)cc2)cc1 | inactive | 
7 | COc1cc(CN2CCN(Cc3ccccc3C)CC2)cc(OC)c1O | inactive | 
8 | CCN1c2cc(C(=O)NC3CCN(Cc4ccccc4)CC3)ccc2C(=O)N2CCCCC21 (stereo unspecified) | inconclusive: 20 µM [inhibitor, partial curve, poor fit] | 
9 | Cc1ccccc1-c1nc(C#N)c(N2CCN(c3ccccc3)CC2)o1 | inconclusive: 6.31 µM [inhibitor, full curve, poor fit] | 
10 | COc1ncccc1CN1CCCC12Cc1ccccc1CNC2=O (stereo unspecified) | inactive | 
11 | CCOCCCNC(=O)c1ccc(-n2c(-c3ccccc3)cc3c2CCCC3)cc1 | inconclusive: 14.1 µM [inhibitor, partial curve, poor fit] | 
12 | Cc1ccc(F)c2c(C=O)c(C(C)(C)C)[nH]c12 | inactive | 
13 | O=C(c1ccc2cc[nH]c2c1)N1CCC(N2C(=O)C(OCC3CC3)C23CCOCC3)CC1 (stereo unspecified) | inconclusive: 35.5 µM [inhibitor, single point] | 
14 | O=C1NCCCCCCN(Cc2ccc(C(F)(F)F)cc2)[C@H]2CCC[C@@H]12 | inconclusive: 11.2 µM [inhibitor, partial curve] | 
15 | Cn1nnnc1C1CCCN(C(=O)CCCc2ccccc2)C1 (stereo unspecified) | inconclusive: 20 µM [inhibitor, partial curve, poor fit] | 
16 | CCN1c2cc(C(=O)NC3CCCCC3)ccc2C(=O)N2CCCCCC21 (stereo unspecified) | inconclusive: 28.2 µM [inhibitor, partial curve, poor fit] | 
17 | CC1CCCN(C(=O)c2cc3ccc4cccnc4c3[nH]2)C1 (stereo unspecified) | inactive | 
18 | CCC(=O)N1CCN(c2nc3c(s2)CC(C(=O)NCc2ccc(C)o2)CC3)CC1 (stereo unspecified) | active: 25.1 µM | 
19 | Cc1cccc(OCC(=O)Nc2cccc(OCc3cc(=O)n4cccc(C)c4n3)c2)c1 |  | inconclusive: -30.3% [inhibitor]
20 | COc1ccc(C)cc1C(C(=O)O)N1CCN(Cc2csc(C)n2)CC1 (stereo unspecified) | inconclusive: 10 µM [inhibitor, partial curve] | 
21 | COCCN1CCCCCC(O)c2cc(C(=O)NCCc3cccnc3)ccc21 (stereo unspecified) | inconclusive: 39.8 µM [inhibitor, single point] | 
22 | Cc1cc2nc(-c3cccc(NC(=O)c4cccc5ccccc45)c3)oc2cc1C | inconclusive: 15.8 µM [inhibitor, partial curve, poor fit] | 
23 | CCCNC(=O)c1cccc2c(=O)c(C)c(-c3ccccc3)oc12 | inactive | 
24 | CCCCN1CC(c2nc3ccccc3n2CCCCOc2cc(C)ccc2C)CC1=O (stereo unspecified) | inconclusive: 28.2 µM [inhibitor, partial curve, poor fit] | 

Row | SMILES | Potency | activity change, negative = inhibition
25 | COc1ccc(-c2cc3c(=O)n(CCNC(=O)c4cccc(OC)c4OC)ccn3n2)cc1 | active: 25.1 µM | 
26 | O=C1COc2ccc(-c3ccccc3F)nc2CN1CCOc1ccccc1 | inactive | 
27 | Nc1cccnc1S(=O)(=O)c1ccccc1 | inconclusive: 28.2 µM [inhibitor, single point] | 
28 | CCc1nc2ccc(C(=O)NCCc3ccccc3OC)cc2nc1CC | inconclusive: 17.8 µM [inhibitor, partial curve, poor fit] | 
29 | O=C(O)c1cccc(CN2CC(COc3ccccc3)C3(C2)CN(c2ccccc2)C3)c1 (stereo unspecified) | inactive | 
30 | CCCCCCc1ccc(Nc2cccc(C)c2)cc1O | inconclusive: 35.5 µM [inhibitor, partial curve, poor fit] | 
31 | Cc1ccc(NC(=O)C(C#N)C(=O)CC(C)C)cc1 (stereo unspecified) | inactive | 
32 | O=C(COc1cccc(Cl)c1)N(Cc1ccco1)c1ccccn1 | inactive | 
33 | C/C(=N/O)c1cc(C(C)(C)C)cc2c1CCC2(C)C | inactive | 
34 | CCCS(=O)(=O)N1CCC(C2CCN(C(=O)NC)CC2)C1 (stereo unspecified) | inconclusive: 39.8 µM [inhibitor, single point] | 
35 | COC(=O)C1=CN(CC(=O)Nc2ccccc2Cl)S(=O)(=O)N=C1C | inactive | 
36 | COc1ccc(-c2nc(C#N)c(NCCN(C)C)o2)cc1OC | inconclusive: 25.1 µM [inhibitor, partial curve, poor fit] | 
37 | CCCc1cc(=O)oc2c(C)c(OCC(=O)OC(C)C)ccc12 | inconclusive: 28.2 µM [inhibitor, partial curve, poor fit] | 
38 | CCN1CCSc2ccc(C(=O)NCc3ccc(OC(C)C)cc3)cc21 | inconclusive: 35.5 µM [inhibitor, partial curve, poor fit] | 
39 | CC(C)NC(=O)c1nc(-c2ccc(Cl)cc2)c2ccccn12 | active: 89.1 µM | 
40 | Cc1ccc(-c2nnc([C@H]3CCN(C(=O)NC4CCCCC4)C3)o2)cc1 | inconclusive: 50.1 µM [inhibitor, single point] | 
41 | COc1ccc(C2=CC(c3c(F)cccc3Cl)n3nnnc3N2)cc1 (stereo unspecified) | inactive | 
42 | CCc1cccc(NC(=O)C2CCCN(c3ncnc4onc(-c5ccc(F)cc5)c34)C2)c1 (stereo unspecified) | inconclusive: 44.7 µM [inhibitor, single point] | 
43 | C[C@@H]1C(=O)O[C@H]2[C@H]1CC[C@@]1(C)Cc3sc(Nc4ccc(C(=O)O)cc4)nc3[C@@H](C)[C@H]21 | active: 35.5 µM | 
44 | COC(=O)c1cccc(CNc2ccc3c4c(cccc24)CC3)c1 | inconclusive: 1.78 µM [inhibitor, partial curve, poor fit] | 
45 | O=C(Nc1ccc(Cl)cc1)c1nc2c(o1)CCN(Cc1ccsc1)CC2 | active: 31.6 µM | 
46 | O=C(CCC1CCCN(S(=O)(=O)c2ccc(F)cc2)C1)NC1CC1 (stereo unspecified) | inactive | 
47 | NS(=O)(=O)c1ccc(CNC(=O)/C=C/c2ccco2)cc1 | inconclusive: 28.2 µM [inhibitor, single point] | 
48 | COc1ccc(/C=N/Nc2ccccc2C(=O)O)cc1 | inconclusive: 31.6 µM [inhibitor, partial curve, poor fit] | 

Row | SMILES | Potency | activity change, negative = inhibition
49 | Cc1cc(OCc2nn[nH]n2)c2c(C)c(CC(=O)O)c(=O)oc2c1 | inconclusive: 1.58 µM [inhibitor, partial curve, poor fit] | 
50 | Cc1nccn1-c1ccc(CNC(=O)C(c2ccc(F)cc2)N(C)C)cc1 (stereo unspecified) | inactive | 
51 | Cc1ccc(Cn2c(SCc3ccc(C(=O)NC4CCCCC4)cc3)nc3ccncc32)cc1 | inconclusive: 39.8 µM [inhibitor, single point] | 
52 | COc1cc(C(=O)Nc2ccc(N3CCOCC3)nc2)cc2c1OCCO2 | inconclusive: 25.1 µM [inhibitor, partial curve, poor fit] | 
53 | COc1ccccc1-c1ccc(C(=O)N2CCCC[C@H](N(C)C)C2)cc1 | inconclusive: 28.2 µM [inhibitor, partial curve, poor fit] | 
54 | COc1cc(/C=C/c2nc(C#N)c(N3CCN(C)CC3)o2)cc(OC)c1OC | inconclusive: 1.78 µM [inhibitor, partial curve, poor fit] | 
55 | COc1ccc(-c2ccc(C(=O)N3Cc4[nH]cnc4CC3C(=O)O)o2)cc1 (stereo unspecified) | active: 28.2 µM | 
56 | CCNC(=O)c1ccc(CN(c2ccccc2)S(C)(=O)=O)cc1 | inactive | 
57 | Cn1c(=O)c2[nH]c(NCc3ccc(F)cc3)nc2n(C)c1=O | inconclusive: 35.5 µM [inhibitor, single point] | 
58 | O=C(c1ccccc1)N1CCC(NCCN2CCCCC2CO)CC1 (stereo unspecified) | inconclusive: 10 µM [inhibitor, partial curve] | 
59 | COc1ccc(/C=C(/C#N)c2ccc(C(F)(F)F)cn2)cc1 | inactive | 
60 | CC(C)c1nc(N2CCCC2)c(C#N)c2c1CCCC2 | inconclusive: 5.62 µM [inhibitor, full curve, poor fit] | 
61 | CCc1cc(N2C[C@H]3CN(C4CCOCC4)C[C@@]3(C(=O)O)C2)nc(C)n1 | inconclusive: 35.5 µM [inhibitor, partial curve, poor fit] | 
62 | Cc1c(C(=O)N(Cc2ccccc2F)C2CCS(=O)(=O)C2)oc2ccccc12 (stereo unspecified) | inactive | 
63 | O=C(Nc1ccccc1F)N1CC(Oc2ccc(-c3nc(-c4ccccc4)no3)cc2)C1 | inconclusive: 31.6 µM [inhibitor, partial curve, poor fit] | 
64 | Cc1nn(C)c2c1c(C(F)(F)F)cc(=O)n2C(C)C(=O)Nc1ccccc1F (stereo unspecified) | inconclusive: 35.5 µM [inhibitor, partial curve, poor fit] | 
65 | COc1ccc(-c2nnc(SCC(=O)Nc3cccc(C(F)(F)F)c3)s2)cc1 | inconclusive: 28.2 µM [inhibitor, single point] | 
66 | CCOc1ccc(C(=O)c2cn(CC(=O)Nc3ccc(Cl)cc3)c3cc4c(cc3c2=O)OCO4)cc1 | inconclusive: 8.91 µM [inhibitor, partial curve, poor fit] | 
67 | CCN1CCN(C(=O)C2CCc3sc(C(=O)N4CCCCC4)cc3C2)CC1 (stereo unspecified) | inactive | 
68 | NC(=O)[C@@H]1[C@@H]2C(=O)N(c3ccc(F)cc3)C(=O)[C@@H]2[C@H]2C=Cc3ccccc3N21 | inconclusive: 20 µM [inhibitor, partial curve, poor fit] | 
69 | Cc1cn2nc(C(=O)NC(C)c3ccccc3)cc2c(N2CCSCC2)n1 (stereo unspecified) | inconclusive: 17.8 µM [inhibitor, partial curve, poor fit] | 
70 | O=C(O)/C=C/c1ccccc1OCc1ccccc1 | inactive | 
71 | CCOc1cc2cc(C(=O)c3ccccc3O)cnc2cc1OC | inactive | 
